Test results reported in the supplement of paper PMC3334620.
The full ranking holds about 33,000 sequences; the median of “E-score (-0.5 to 0.5)” is about -0.012, and the highest 2% start at about 0.27. The list shows a part of the results.

biological target: T1, Vhr1 (UniProt P40522); assay: PBM E-score (8-mer binding enrichment) (E-score (-0.5 to 0.5)); higher = stronger / more preferred TF binding; most listed sequences are background and not binding sites; settings: protein concentration: 200 nM; construct: GST-full length
T1 sequence: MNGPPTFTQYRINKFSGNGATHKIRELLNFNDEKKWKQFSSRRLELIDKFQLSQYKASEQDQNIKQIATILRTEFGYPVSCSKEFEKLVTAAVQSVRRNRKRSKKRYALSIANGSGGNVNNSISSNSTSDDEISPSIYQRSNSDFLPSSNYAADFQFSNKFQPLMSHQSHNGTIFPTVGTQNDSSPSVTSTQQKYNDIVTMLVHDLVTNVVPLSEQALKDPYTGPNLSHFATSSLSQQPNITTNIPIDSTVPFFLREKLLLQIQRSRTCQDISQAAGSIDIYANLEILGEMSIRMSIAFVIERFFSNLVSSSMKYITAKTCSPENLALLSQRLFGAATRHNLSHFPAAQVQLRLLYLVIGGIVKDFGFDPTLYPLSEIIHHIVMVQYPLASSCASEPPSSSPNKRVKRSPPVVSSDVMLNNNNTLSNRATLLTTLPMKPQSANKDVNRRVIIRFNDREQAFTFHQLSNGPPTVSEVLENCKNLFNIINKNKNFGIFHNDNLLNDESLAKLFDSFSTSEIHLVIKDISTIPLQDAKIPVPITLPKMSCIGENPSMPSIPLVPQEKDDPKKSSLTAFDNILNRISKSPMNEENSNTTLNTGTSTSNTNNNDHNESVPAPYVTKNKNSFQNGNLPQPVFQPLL
Experimental: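 Universal 'all 10-mer' protein binding microarrays (Agilent AMADID 015681) probed with GST-tagged S. cerevisiae TFs (full-length or DBD) made by in vitro transcription/translation (PURExpress), about 100-200 nM. Bound TF was detected with fluorescent anti-GST. Each ungapped 8-mer (which stands for itself and its reverse complement) is scored by the PBM enrichment score (E-score), a modified Wilcoxon-Mann-Whitney statistic from -0.5 to +0.5, computed with the Universal PBM Analysis Suite. Scale: above 0.35 generally sequence-specific binding.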

Row | Sequence | PBM E-score
1 | ACAGCCGA | -0.16
2 | ACGTAGCA | 0.0758
3 | AAGGTTAA | -0.24
4 | CGACGACC | 0.00875
5 | CGCCTTCC | -0.172
6 | ATTCCAAC | 0.0512
7 | GCCCGGCC | -0.00271
8 | AAACATTC | -0.172
9 | GGCGGATA | 0.0479
10 | AGATTAGG | -0.104
11 | GCCAACCA | -0.199
12 | CGTGCGTA | -0.0417
13 | AGCCGGAA | 0.0165
14 | CATTAGCA | -0.152
15 | TGACCTAA | -0.021
16 | AGGTGACT | 0.425
17 | CTTTCCGC | -0.224
18 | GCAGATCC | 0.064
19 | CCACATTC | 0.1
20 | AGGGGGCC | -0.212
21 | CTAAGATC | -0.0048
22 | CCCAATAG | -0.0738
23 | AGCGTTTC | -0.221
24 | GCGTCCGA | 0.0308
25 | GGTAGGTA | 0.0727

Row | Sequence | PBM E-score
26 | ATCCTGTG | 0.104
27 | GATAGACA | 0.165
28 | CCAGTCGG | 0.0956
29 | ATGGGCGG | 0.237
30 | AATAATTA | 0.0796
31 | AAGTATGG | 0.142
32 | ATTAGTAC | 0.142
33 | CAGGTAAC | -0.00196
34 | CGTATCTA | 0.199
35 | ACAGAAAC | 0.0542
36 | CCCTCAAC | -0.246
37 | CGATATCG | -0.0182
38 | AGATGAGG | -0.182
39 | AGGAGTGC | -0.046
40 | GAAACCTC | -0.0997
41 | AAGAAAGA | -0.19
42 | CTAGAAAC | -0.252
43 | GGTGCCGA | -0.0472
44 | ACGGTCGG | 0.0799
45 | TGATCGCA | -0.0688
46 | ATCTGACA | -0.0887
47 | AGCTCTCG | -0.158
48 | CCATGTAG | 0.00387
49 | AATGCCCT | -0.229
50 | ATAGCTTC | -0.214

Row | Sequence | PBM E-score
51 | GATACTAC | 0.112
52 | CTCGGGTC | -0.0496
53 | AGGAGGCC | -0.309
54 | GAATATAA | -0.0256
55 | CGGTAATA | 0.112
56 | CCTCTCCG | -0.235
57 | AGTGACAA | 0.0325
58 | AGTAGGCA | 0.154
59 | ACGACTCG | 0.327
60 | TCACGACA | 0.0788
61 | TTACGAAA | -0.267
62 | AAGCCATT | 0.0335
63 | AACTATTG | 0.13
64 | AGTAACCC | 0.131
65 | CCCAAAGC | -0.248
66 | CCAGCCAC | 0.111
67 | ATTATTGA | 0.036
68 | GAGCCTAC | 0.0254
69 | ATGAAACG | -0.0278
70 | CCCCGTAA | 0.0107
71 | GAAAAGTC | -0.19
72 | AAGAGAGG | -0.2
73 | AAATGTTG | -0.291
74 | TACATGGA | 0.0672
75 | AGAATGCT | -0.049

Row | Sequence | PBM E-score
76 | CCTCTCAG | -0.27
77 | GACTCCGC | 0.38
78 | GGCGCTAA | -0.112
79 | CTTTGCAA | -0.144
80 | ACCGGAAC | 0.175
81 | ACCCGTTG | 0.101
82 | AGACGTTG | 0.0126
83 | AGTAGTTC | 0.108
84 | CAAGCGCC | -0.167
85 | CACAGGAC | 0.149
86 | AGGGTTGC | -0.068
87 | ACTTTAGG | -0.213
88 | AAATCGAT | 0.0304
89 | GTCGGGCA | -0.127
90 | ACCTAGAG | -0.061
91 | GGTTCTCA | -0.0594
92 | CACTTCGG | 0.0782
93 | AGTGGCAG | -0.0742
94 | ATTATATG | 0.0829
95 | CTCAATGA | 0.105
96 | CCCCGTAG | -0.0848
97 | CGTGCGAC | 0.109
98 | TAGGACCA | -0.063
99 | CATCCAAA | 0.0787
100 | GTCCGGGA | 0.0879

Row | Sequence | PBM E-score
101 | ATAATTCC | -0.158
102 | ACCTACCC | 0.0604
103 | ATCTCACA | 0.156
104 | CCAATATC | 0.0759
105 | CCTCACGA | -0.038
106 | TGCGAAAA | -0.0344
107 | TAACATTA | -0.0109
108 | AGCAAAGC | -0.0978
109 | CCGGCTTC | 0.0497
110 | GAGGGTGC | -0.121
111 | AAGTTGAT | -0.12
112 | CCTCTCTC | -0.232
113 | AGTGTCTG | 0.0892
114 | ACTGATGC | 0.078
115 | CATAATCA | 0.308
116 | TCGTGCAA | 0.0478
117 | CGCATGAC | 0.2
118 | ACTTATTC | 0.0504
119 | ACCCGGTC | -0.0722
120 | AAGCTTCG | -0.173
121 | AATTAATA | 0.102
122 | ATAATATA | 0.3
123 | ATCACGTG | -0.0446
124 | CGCTCCAG | -0.0885
125 | GAGTGCGC | -0.0251

Row | Sequence | PBM E-score
126 | ATATGATA | 0.224
127 | TCAGAGCA | -0.0222
128 | GCACGGCA | -0.167
129 | AAATTCCA | -0.148
130 | GGGAGGTA | 0.121
131 | ACTCAAAT | -0.0707
132 | ACAACAAC | 0.16
133 | GACTTAAC | -0.185
134 | ACGCTGTG | 0.174
135 | AGGTGTCG | 0.134
136 | CTGGCCCA | -0.133
137 | AGCCGCTA | -0.098
138 | CATCAGGA | 0.166
139 | AGACACCC | 0.177
140 | AATCAAGC | 0.0128
141 | CAACTTAC | -0.0516
142 | ACGCGGAT | 0.129
143 | ATTTCCCG | 0.0115
144 | TAGAGGAA | -0.307
145 | ATCACGCA | 0.176
146 | AAAGCGCT | -0.083
147 | GTAGCGGA | 0.0508
148 | CGTCGGGA | -0.0491
149 | CTGGTCGC | 0.105
150 | ATTGGCAA | 0.0954

Row | Sequence | PBM E-score
151 | CGTCACTA | 0.0865
152 | CCAATCAG | -0.0885
153 | AGCGGCAG | -0.177
154 | CCGTGTTA | 0.152
155 | ACCTTTAG | -0.224
156 | ACTAAGGC | -0.14
157 | ATGTACTA | 0.128
158 | CCTGTTAA | -0.169
159 | ATAGAACA | -0.0271
160 | AAAGGTCT | -0.289
161 | AGAGTGTA | 0.0471
162 | ATTGTTAA | 0.0262
163 | CACCGCTA | -0.0928
164 | CTGTTAAG | -0.121
165 | GTCGATTA | -0.0296
166 | TCACGTAA | -0.0451
167 | CGGCCAAA | -0.232
168 | TCCATGAA | 0.123
169 | CGAGCAAC | -0.0995
170 | GGTTACCA | 0.116
171 | ACGGCCAT | 0.0221
172 | GCCCCCGC | -0.00402
